# Data as given in the supplement of paper PMC9046079.
# Where a name gives a salt, the structure may show the parent alone. ± gives the standard deviation of the averaged measurements. The list shows a part of the results.
# Tests used:
# [1] = system: murine small intestinal organoids (ENR+CD Paneth differentiation); test: cellular ATP (CellTiter-Glo 3D) relative to plate median (log10 fold change); higher = more viable cells; settings: 6 d
# [2] = system: murine small intestinal organoids (ENR+CD Paneth differentiation); test: carbachol-stimulated secreted lysozyme activity relative to plate median (log10 fold change); higher = more Paneth cell lysozyme secretion; settings: 6 d, carbachol 10 µM
# [3] = system: murine small intestinal organoids (ENR+CD Paneth differentiation); test: basal (non-stimulated) secreted lysozyme activity relative to plate median (log10 fold change); higher = more Paneth cell lysozyme secretion; settings: 6 d
# 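For basal (non-stimulated) secreted lysozyme activity relative to plate median in this document: ISC-enriched organoid precursors grown as 2.5D pseudo-monolayer on Matrigel, compound given on day 0 and day 3, plate values LOESS-normalized before median fold change, three murine donors.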
# 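For cellular ATP (CellTiter-Glo 3D) relative to plate median in this document: 2.5D pseudo-monolayer culture of ISC-enriched organoids partly embedded atop Matrigel, compound added on day 0 and again on day 3, per-plate LOESS correction before median fold change.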
Compound,cellular ATP (log10) ([1]; 0.08 µM),cellular ATP (log10) ([1]; 0.4 µM),cellular ATP (log10) ([1]; 2 µM),cellular ATP (log10) ([1]; 10 µM),carbachol-stimulated secreted lysozyme activity (log10) ([2]; 0.08 µM),carbachol-stimulated secreted lysozyme activity (log10) ([2]; 0.4 µM),carbachol-stimulated secreted lysozyme activity (log10) ([2]; 2 µM),carbachol-stimulated secreted lysozyme activity (log10) ([2]; 10 µM),basal (log10) ([3]; 0.08 µM),basal (log10) ([3]; 0.4 µM),basal (log10) ([3]; 2 µM),basal (log10) ([3]; 10 µM)
CC(C)NCC(O)COc1ccc(COCCOC(C)C)cc1 (stereo unspecified) [Bisoprolol fumarate],-0.104 ± 0.39,-0.0571 ± 0.079,-0.02 ± 0.14,0.0582 ± 0.11,0.0072 ± 0.11,0.157 ± 0.098,0.094 ± 0.069,-0.0315 ± 0.0092,0.0849 ± 0.088,0.0746 ± 0.038,0.0754 ± 0.074,0.00313 ± 0.058
N#CSc1cc(SC#N)c(N)nc1N,0.0984 ± 0.025,-0.143 ± 0.55,-0.136 ± 0.54,-0.591 ± 0.095,0.0612 ± 0.21,-0.0876 ± 0.029,-0.0733 ± 0.14,-0.205 ± 0.089,0.0156 ± 0.095,-0.0076 ± 0.2,-0.0385 ± 0.16,-0.254 ± 0.054
C#CCC(Cc1cnc2nc(N)nc(N)c2n1)c1ccc(C(=O)N[C@@H](CCC(=O)O)C(=O)O)cc1 (stereo partly specified) [Pralatrexate],-0.682 ± 0.65,-0.568 ± 0.7,-0.41 ± 0.49,-0.709 ± 0.48,-0.267 ± 0.065,-0.0995 ± 0.15,0.049 ± 0.39,-0.161 ± 0.21,-0.143 ± 0.085,-0.0915 ± 0.082,-0.0747 ± 0.063,-0.0728 ± 0.057
CC(C)C[C@H](NC(=O)CNC(=O)c1cc(Cl)ccc1Cl)B(O)O,-1.65 ± 0.56,-1.1 ± 0.88,-1.23 ± 0.55,-1.76 ± 0.71,-0.4771 ± 0.003,-0.44 ± 0.03,-0.424 ± 0.037,-0.448 ± 0.0082,-0.271 ± 0.096,-0.284 ± 0.097,-0.249 ± 0.081,-0.298 ± 0.075
O=C(O)c1cc2cccc([N+](=O)[O-])c2[nH]1,-0.171 ± 0.4,-0.04 ± 0.28,-0.0806 ± 0.048,-0.0993 ± 0.17,0.072 ± 0.038,0.142 ± 0.11,0.0723 ± 0.17,-0.0498 ± 0.13,0.0155 ± 0.088,0.0343 ± 0.11,0.0469 ± 0.14,0.0319 ± 0.25
Cc1ccc(C(=O)N(CCCN)[C@@H](c2oc3cc(Cl)ccc3c(=O)c2Cc2ccccc2)C(C)C)cc1,-0.543 ± 0.29,-0.582 ± 0.43,-0.241 ± 0.35,-0.418 ± 0.24,-0.412 ± 0.017,-0.231 ± 0.31,-0.221 ± 0.26,-0.146 ± 0.36,-0.249 ± 0.081,-0.0319 ± 0.38,-0.169 ± 0.15,0.00792 ± 0.41
CCOC(=O)C1=C(N)Oc2ccc(Br)cc2C1C(C#N)C(=O)OCC (stereo unspecified),0.534 ± 0.22,0.526 ± 0.031,0.554 ± 0.024,0.388 ± 0.11,0.156 ± 0.024,0.337 ± 0.3,0.153 ± 0.05,0.0469 ± 0.24,0.121 ± 0.05,0.137 ± 0.077,0.154 ± 0.033,0.132 ± 0.15
O=C(Cc1ccc(-c2ccc(OCCN3CCOCC3)cc2)cn1)NCc1ccccc1,-0.752 ± 0.12,-1.25 ± 0.28,-1.98 ± 0.52,-1.41 ± 0.87,-0.45 ± 0.023,-0.467 ± 0.031,-0.505 ± 0.057,-0.479 ± 0.075,-0.283 ± 0.07,-0.292 ± 0.1,-0.251 ± 0.09,-0.286 ± 0.081
